Here are results for nine variants from the supplement of paper PMC12217912.

The other results are listed elsewhere or left out. The full chains were built here from the parent and the listed change. Values near 0.05 are background.

B1: TEV protease; numbered along this chain (parent)
chain: MGESLFKGPRDYNPISSSICHLTNESDGHTTSLYGIGFGPFIITNKHLFRRNNGTLVVQSLHGVFKVKDTTTLQQHLVDGRDMIIIRMPKDFPPFPQKLKFREPQREERICLVTTNFQTKSMSSMVSDTSCTFPSGDGIFWKHWIQTKDGQCGSPLVSTRDGFIVGIHSASNFTNTNNYFTSVPKNFMELLTNQEAQQWVSGWRLNADSVLWGGHKVFMVKPEEPFQPVKEATQL

The variants in this assay derive from B1. Description: raw area under fraction-flipped curve 0-4 h after induction (AUC4h, not background-subtracted), DNA-recorder readout of cleavage of the substrate (dimensionless); higher = more cleavage of the substrate by the protease variant. The following applies: temperature: 34 °C; time window: 0-4 h after rhamnose induction. How it is done:
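In vivo DNA recorder in E. coli TOP10(DE3) ΔrhaA at 34 °C. Each TEVp single-site mutant (parent TEVp 0) is paired with a single-site variant of the 7-mer TEVs (canonical ENLYFQ|S). The substrate sits between flexible linkers in a Bxb1-sfGFP-TEVs-SsrA fusion, so cleavage stabilises Bxb1 and speeds flipping of a recombination array, read by NGS. The value is the raw area under the fraction-flipped curve over 0-4 h after rhamnose induction (AUC4h), with ≥20 reads per time point. It is not background-subtracted; inactive controls average about 0.047.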
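Note: Bxb1 expression induced with 0.2% (w/v) L-rhamnose at OD600 near 0.5, cultures sampled hourly, flipped fraction per protease–substrate barcode pair counted by paired-end Illumina sequencing.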

MGESLFKGPRDYNPISSSICHLTNESDGHTTSLYGIGFGPFIITNKHLFRRNNGTLVVQSLHGVFKVKDTTTLQQHLVDGRDMIIIRMPKDFPPFPQKLKFREPQREERICLVTTNFQTKSMSSMVSDTSCTFPSGDGIFWKHWIDTKDGQCGSPLVSTRDGFIVGIHSASNFTNTNNYFTSVPKNFMELLTNQEAQQWVSGWRLNADSVLWGGHKVFMVKPEEPFQPVKEATQL [Q146D]: the “area with substrate ENAYFQS” value was 0.0488, the “area with substrate ENCYFQS” value stood at 0.0624, the “area with substrate ENDYFQS” value came out at 0.0708 and the “area with substrate ENEYFQS” value came to 0.0539. Also, the “area with substrate ENGYFQS” value is 0.0604, the “area with substrate ENHYFQS” value is 0.0616, the “area with substrate ENIYFQS” value worked out at 0.126 and the “area with substrate ENKYFQS” value was found to be 0.0445. Besides, the “area with substrate ENNYFQS” value was 0.0753, the “area with substrate ENPYFQS” value is 0.0585, the “area with substrate ENQYFQS” value was found to be 0.0624 and the “area with substrate ENSYFQS” value was found to be 0.0626. Moreover, the “area with substrate ENVYFQS” value came out at 0.0753, the “area with substrate ENWYFQS” value came out at 0.0078 and the “area with substrate ENYYFQS” value was found to be 0.0571.

As to MGESLFKGPRDYNPISSSICHLTNESDGHTTSLYGIGFGPFIITNKHLFRRNNGTLVVQSLHGVFKVKDTTTLQQHLVDGRDMIIIRMPKDFPPFPQKLKFREPQREERICLVTTNFQTKSMSSMVSDTSCTFPSGDGIFWKHWIPTKDGQCGSPLVSTRDGFIVGIHSASNFTNTNNYFTSVPKNFMELLTNQEAQQWVSGWRLNADSVLWGGHKVFMVKPEEPFQPVKEATQL [Q146P], the “area with substrate ENAYFQS” value was 0.0822, the “area with substrate ENCYFQS” value was determined as 0.0575, the “area with substrate ENDYFQS” value came out at 0.0966 and the “area with substrate ENEYFQS” value amounted to 0.0578. For the same variant, the “area with substrate ENFYFQS” value was 0.0566, the “area with substrate ENGYFQS” value stood at 0.0695, the “area with substrate ENPYFQS” value was 0.0651 and the “area with substrate ENQYFQS” value was 0.0578. The “area with substrate ENRYFQS” value was 0.0591, the “area with substrate ENTYFQS” value was 0.0631, the “area with substrate ENWYFQS” value is 0.0603 and the “area with substrate ENYYFQS” value came out at 0.0589.

MGESLFKGPRDYNPISSSICHLTNESDGHTTSLYGIGFGPFIITNKHLFRRNNGTLVVQSLHGVFKVKDTTTLQQHLVDGRDMIIIRMPKDFPPFPQKLKFREPQREERICLVTTNFQTKSMSSMVSDTSCTFPSGDGIFWKHWIQTKDGQCGSILVSTRDGFIVGIHSASNFTNTNNYFTSVPKNFMELLTNQEAQQWVSGWRLNADSVLWGGHKVFMVKPEEPFQPVKEATQL [P155I]: the “area with substrate ENAYFQS” value worked out at 0.0542, the “area with substrate ENCYFQS” value turned out to be 0.0573, the “area with substrate ENDYFQS” value stood at 0.0546 and the “area with substrate ENEYFQS” value is 0.0613. Moreover, the “area with substrate ENFYFQS” value was 0.076, the “area with substrate ENGYFQS” value was determined as 0.0513, the “area with substrate ENHYFQS” value came out at 0.0556 and the “area with substrate ENIYFQS” value was determined as 0.0606. In addition, the “area with substrate ENKYFQS” value worked out at 0.0649, the “area with substrate ENMYFQS” value came to 0.0726, the “area with substrate ENPYFQS” value is 0.0374 and the “area with substrate ENQYFQS” value is 0.0607. Further, the “area with substrate ENRYFQS” value was determined as 0.06, the “area with substrate ENSYFQS” value is 0.0639, the “area with substrate ENTYFQS” value stood at 0.0426 and the “area with substrate ENVYFQS” value is 0.0791. Further, the “area with substrate ENWYFQS” value was 0.0557 and the “area with substrate ENYYFQS” value is 0.0411.

For the variant MGESLFKGPRDYNPISSSICHLTNESDGHTTSLYGIGFGPFIITNKHLFRRNNGTLVVQSLHGVFKVKDTTTLQQHLVDGRDMIIIRMPKDFPPFPQKLKFREPQREERICLVTTNFQTKSMSSMVSDTSCTFPSGDGIFWKHWIQTKDGQCGSPLWSTRDGFIVGIHSASNFTNTNNYFTSVPKNFMELLTNQEAQQWVSGWRLNADSVLWGGHKVFMVKPEEPFQPVKEATQL [V157W], the “area with substrate ENAYFQS” value was 0.0557, the “area with substrate ENCYFQS” value came to 0.0514, the “area with substrate ENDYFQS” value was found to be 0.0521 and the “area with substrate ENEYFQS” value is 0.052. Further, the “area with substrate ENFYFQS” value is 0.0626, the “area with substrate ENGYFQS” value worked out at 0.0541, the “area with substrate ENHYFQS” value turned out to be 0.0257 and the “area with substrate ENMYFQS” value worked out at 0.0421. Also, the “area with substrate ENNYFQS” value was determined as 0.058, the “area with substrate ENQYFQS” value amounted to 0.0516, the “area with substrate ENSYFQS” value came to 0.0627 and the “area with substrate ENTYFQS” value came to 0.0521. In addition, the “area with substrate ENWYFQS” value stood at 0.0433 and the “area with substrate ENYYFQS” value was found to be 0.0626.

Take MGESLFKGPRDYNPISSSICHLTNESDGHTTSLYGIGFGPFIITNKHLFRRNNGTLVVQSLHGVFKVKDTTTLQQHLVDGRDMIIIRMPKDFPPFPQKLKFREPQREERICLVTTNFQTKSMSSMVSDTSCTFPSGDGIFWKGWIQTKDGQCGSPLVSTRDGFIVGIHSASNFTNTNNYFTSVPKNFMELLTNQEAQQWVSGWRLNADSVLWGGHKVFMVKPEEPFQPVKEATQL [H143G]: the “area with substrate ENAYFQS” value was determined as 0.0472, the “area with substrate ENCYFQS” value worked out at 0.0594, the “area with substrate ENDYFQS” value stood at 0.051 and the “area with substrate ENEYFQS” value worked out at 0.0449. Further, the “area with substrate ENFYFQS” value worked out at 0.0567, the “area with substrate ENGYFQS” value was 0.0504, the “area with substrate ENHYFQS” value was found to be 0.0506 and the “area with substrate ENMYFQS” value is 0.0663. In addition, the “area with substrate ENNYFQS” value amounted to 0.0489, the “area with substrate ENPYFQS” value was 0.0382, the “area with substrate ENRYFQS” value was 0.0651 and the “area with substrate ENSYFQS” value worked out at 0.0522. Further, the “area with substrate ENTYFQS” value worked out at 0.0534, the “area with substrate ENVYFQS” value came to 0.0533 and the “area with substrate ENWYFQS” value was 0.0409.

On to MGESLFKGPRDYNPISSSICHLTNESDGHTTSLYGIGFGPFIITNKHLFRRNNGTLVVQSLHGVFKVKDTTTLQQHLVDGRDMIIIRMPKDFPPFPQKLKFREPQREERICLVTTNFQTKSMSSMVSDTSCTFPSGDGIFWKHWIQTKTGQCGSPLVSTRDGFIVGIHSASNFTNTNNYFTSVPKNFMELLTNQEAQQWVSGWRLNADSVLWGGHKVFMVKPEEPFQPVKEATQL [D149T], for which the “area with substrate ENAYFQS” value came out at 0.0601, the “area with substrate ENCYFQS” value is 0.0645, the “area with substrate ENDYFQS” value came out at 0.0617 and the “area with substrate ENEYFQS” value came to 0.0646. The “area with substrate ENFYFQS” value was 0.0591, the “area with substrate ENGYFQS” value was determined as 0.0577, the “area with substrate ENHYFQS” value came to 0.0586 and the “area with substrate ENKYFQS” value worked out at 0.0662. Besides, the “area with substrate ENQYFQS” value was determined as 0.0556, the “area with substrate ENRYFQS” value is 0.0745, the “area with substrate ENSYFQS” value was found to be 0.0665 and the “area with substrate ENTYFQS” value is 0.0661. Besides, the “area with substrate ENVYFQS” value came out at 0.0563 and the “area with substrate ENYYFQS” value was 0.0564.

Regarding MGESLFKGPRDYNPISSSICHLTNESDGHTTSLYGIGFGPFIITNKHLFRRNNGTLVVQSLHGVFKVKDTTTLQQHLVDGRDMIIIRMPKDFPPFPQKLKFREPQREERICLVTTNFQTKSMSSMVSDTSCTFPSGDGIFWKHWIQTCDGQCGSPLVSTRDGFIVGIHSASNFTNTNNYFTSVPKNFMELLTNQEAQQWVSGWRLNADSVLWGGHKVFMVKPEEPFQPVKEATQL [K148C], the “area with substrate ENAYFQS” value is 0.0764, the “area with substrate ENCYFQS” value was 0.0841, the “area with substrate ENDYFQS” value was 0.0685 and the “area with substrate ENEYFQS” value worked out at 0.0663. The “area with substrate ENFYFQS” value worked out at 0.0502, the “area with substrate ENHYFQS” value was determined as 0.0554, the “area with substrate ENIYFQS” value is 0.0834 and the “area with substrate ENMYFQS” value came out at 0.0849. Further, the “area with substrate ENNYFQS” value stood at 0.0472, the “area with substrate ENPYFQS” value came out at 0.0664, the “area with substrate ENRYFQS” value was determined as 0.0471 and the “area with substrate ENSYFQS” value amounted to 0.077. Besides, the “area with substrate ENTYFQS” value amounted to 0.0644, the “area with substrate ENVYFQS” value was 0.0706 and the “area with substrate ENYYFQS” value worked out at 0.0673.

In the case of MGESLFKGPRDYNPISSSICHLTNESDGHTTSLYGIGFGPFIITNKHLFRRNNGTLVVQSLHGVFKVKDTTTLQQHLVDGRDMIIIRMPKDFPPFPQKLKFREPQREERICLVTTNFQTKSMSSMVSDTSCTFPSGDGIFWKHWVQTKDGQCGSPLVSTRDGFIVGIHSASNFTNTNNYFTSVPKNFMELLTNQEAQQWVSGWRLNADSVLWGGHKVFMVKPEEPFQPVKEATQL [I145V], the “area with substrate ENAYFQS” value was found to be 0.0785, the “area with substrate ENDYFQS” value is 0.0391, the “area with substrate ENGYFQS” value turned out to be 0.0695 and the “area with substrate ENKYFQS” value was 0.0498. Besides, the “area with substrate ENNYFQS” value amounted to 0.0594, the “area with substrate ENSYFQS” value is 0.0819 and the “area with substrate ENVYFQS” value came to 0.0752.

For MGESLFKGPRDYNPISSSICHLTNESDGHTTSLYGIGFGPFIITNKHLFRRNNGTLVVQSLHGVFKVKDTTTLQQHLVDGRDMIIIRMPKDFPPFPQKLKFREPQREERICLVTTNFQTKSMSSMVSDTSCTFPSGDGIFWKHWIQTKDGQCGSPLVSIRDGFIVGIHSASNFTNTNNYFTSVPKNFMELLTNQEAQQWVSGWRLNADSVLWGGHKVFMVKPEEPFQPVKEATQL [T159I], the “area with substrate ENAYFQS” value was determined as 0.0663, the “area with substrate ENDYFQS” value stood at 0.0642, the “area with substrate ENEYFQS” value was 0.0609 and the “area with substrate ENFYFQS” value came to 0.0574. The “area with substrate ENGYFQS” value came out at 0.0689, the “area with substrate ENHYFQS” value amounted to 0.0465, the “area with substrate ENMYFQS” value came to 0.0808 and the “area with substrate ENNYFQS” value stood at 0.0763. Besides, the “area with substrate ENPYFQS” value is 0.0511, the “area with substrate ENQYFQS” value was determined as 0.0641, the “area with substrate ENSYFQS” value was 0.0744 and the “area with substrate ENTYFQS” value is 0.0253. Also, the “area with substrate ENVYFQS” value turned out to be 0.0774.
